From PubChem BioAssay AID1347120 (National Center for Advancing Translational Sciences (NCATS), 2019)
The campaign covered roughly 390,000 compounds. About 930 (0.24%) were called active. Inconclusive means that the source gave no clear call. Such entries were picked first, then a sample of the others. Calls follow the shape of the dose curve; as a rule, active = well fitted activation curve with a large enough effect; inconclusive = small, poorly fitted or top-dose-only effect; inactive = no such curve, though single readings can be large or run the other way. Potencies of inconclusive entries are doubtful fits and often do not repeat.

Assay: qHTS for Suppressors of FUS Proteinopathy: Primary screen using FUS-linked yeast assay; also: nearly all actives have a fitted effect of over 55% in size
Conditions: S. cerevisiae FUS-expressing, OD600, 24 h; Potency: growth rescue; series mostly up to 76.6 µM
Procedure, shortened: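 FUS-expressing yeast, raffinose-pregrown, induced in 2% galactose minimal medium at OD 0.005; compounds in a dilution series, 24hr at 30C. Growth restoration read as absorbance at 600 nm. CP55940 positive control, DMSO negative.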
Potency is read from the fitted curve at half-maximal effect; tags tell the direction and shape of the fitted curve.

SMILES | Potency
CSc1cccc(NC(=O)c2c(Cl)cnn2C)c1 | inactive
N#CCCn1nc(-c2ccccc2)cc1-n1c(C(F)(F)F)nc2ccccc21 | inconclusive: 20 µM [activator, partial curve, poor fit]
Cc1nn(C(=O)c2ccccc2)c(C)c1Sc1ccc(Cl)cc1 | inconclusive: 39.8 µM [activator, single point]
COc1ccc(C(C(=O)N(C)C2CCCC2)N(Cc2ccc(F)cc2)C(=O)c2csc3ccc(Cl)cc23)cc1OC (configuration not stated) | inconclusive: 8.91 µM [activator, partial curve, poor fit]
CCCCCC(=O)N1CC2(CC(c3cccc(NC(=O)COc4ccc(Cl)cc4)c3)=NO2)C[C@@H]1C(N)=O (some centres not stated) | inconclusive: 25.1 µM [activator, single point]
O=C(Nc1nc(-c2ccncc2)cs1)c1ccco1 | inconclusive: 39.8 µM [activator, partial curve, poor fit]
OCCNCCOc1ccccc1F | inactive
CN(C)[C@H]1CCN(c2ccc3c(c2)O[C@H]2CCN(C2)S3(=O)=O)C1 | inactive
CC1=C(C(=O)N(C(C)C)C(C)C)CC(CC(=O)NC(c2ccccc2)c2ccccc2)C(=O)N1CCC1=CCCCC1 (configuration not stated) | inconclusive: 2.82 µM [activator, full curve]
Cc1cc(=O)oc2c(C)c(OCC(=O)NCCc3ccc(S(N)(=O)=O)cc3)ccc12 | inconclusive: 39.8 µM [activator, single point]
CCOC(=O)NC1(NC(C)C)Oc2ccccc2O1 | inactive
Cc1ccc(C(=O)Nc2ccc(F)cc2)cc1S(=O)(=O)N1CCCCCC1 | inconclusive: 20 µM [activator, partial curve, poor fit]
CC(=O)C1=C(C)NC(SCC(=O)c2ccc(Cl)cc2)=C(C#N)C1c1ccco1 (configuration not stated) | inconclusive: 25.1 µM [activator, partial curve, poor fit]
COc1ccc(-c2cc(NC=O)c3ncc(-c4cc(OC)c(OC)c(OC)c4)n3c2)c(OC)c1 | inconclusive: 44.7 µM [activator, single point]
CCOc1ccccc1NC(=O)CN(c1ccc(C)cc1)S(=O)(=O)c1c(C)n[nH]c1C | inconclusive: 28.2 µM [activator, single point]
COc1ccc(-c2csc(NC(=O)CCS(=O)(=O)c3ccccc3)n2)c(OC)c1 | inconclusive: 31.6 µM [activator, partial curve, poor fit]
CCN(C(=O)c1ccc2c(c1)N(Cc1cccc(Cl)c1)C(=O)c1ccccc1S2=O)c1ccccc1 (configuration not stated) | active: 31.6 µM
